# Assay results from article PMC5341729 (Molecular Biology of the Cell, 2017).
# T1: MYO10-TPRN(KASA)^BAIT (mouse, UniProt A2AI08 1-749, KISF to KASA (KISF motif, residues 624-627))
# T1 sequence: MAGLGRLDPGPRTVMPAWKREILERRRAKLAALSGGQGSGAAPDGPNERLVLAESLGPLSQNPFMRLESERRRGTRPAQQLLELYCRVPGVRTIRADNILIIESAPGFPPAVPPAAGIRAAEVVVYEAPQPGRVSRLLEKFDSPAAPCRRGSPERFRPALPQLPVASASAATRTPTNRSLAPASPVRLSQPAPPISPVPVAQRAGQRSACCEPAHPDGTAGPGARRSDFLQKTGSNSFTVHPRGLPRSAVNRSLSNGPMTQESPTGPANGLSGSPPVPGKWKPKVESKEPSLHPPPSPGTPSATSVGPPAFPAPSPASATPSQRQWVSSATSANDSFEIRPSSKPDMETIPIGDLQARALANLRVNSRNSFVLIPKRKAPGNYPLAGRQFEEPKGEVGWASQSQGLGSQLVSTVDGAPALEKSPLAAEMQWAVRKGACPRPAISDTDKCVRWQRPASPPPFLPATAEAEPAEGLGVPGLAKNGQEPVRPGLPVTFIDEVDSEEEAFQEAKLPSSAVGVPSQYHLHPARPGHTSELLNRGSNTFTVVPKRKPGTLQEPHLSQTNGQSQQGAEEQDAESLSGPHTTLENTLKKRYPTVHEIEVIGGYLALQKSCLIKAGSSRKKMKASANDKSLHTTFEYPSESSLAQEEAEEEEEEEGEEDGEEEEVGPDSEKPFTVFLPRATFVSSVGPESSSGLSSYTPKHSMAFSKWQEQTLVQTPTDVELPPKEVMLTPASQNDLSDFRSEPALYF
# T2: MYO10-TPRN^BAIT (taperin fused to MYO10^HMM) (mouse, UniProt A2AI08 1-749)
# T2 sequence: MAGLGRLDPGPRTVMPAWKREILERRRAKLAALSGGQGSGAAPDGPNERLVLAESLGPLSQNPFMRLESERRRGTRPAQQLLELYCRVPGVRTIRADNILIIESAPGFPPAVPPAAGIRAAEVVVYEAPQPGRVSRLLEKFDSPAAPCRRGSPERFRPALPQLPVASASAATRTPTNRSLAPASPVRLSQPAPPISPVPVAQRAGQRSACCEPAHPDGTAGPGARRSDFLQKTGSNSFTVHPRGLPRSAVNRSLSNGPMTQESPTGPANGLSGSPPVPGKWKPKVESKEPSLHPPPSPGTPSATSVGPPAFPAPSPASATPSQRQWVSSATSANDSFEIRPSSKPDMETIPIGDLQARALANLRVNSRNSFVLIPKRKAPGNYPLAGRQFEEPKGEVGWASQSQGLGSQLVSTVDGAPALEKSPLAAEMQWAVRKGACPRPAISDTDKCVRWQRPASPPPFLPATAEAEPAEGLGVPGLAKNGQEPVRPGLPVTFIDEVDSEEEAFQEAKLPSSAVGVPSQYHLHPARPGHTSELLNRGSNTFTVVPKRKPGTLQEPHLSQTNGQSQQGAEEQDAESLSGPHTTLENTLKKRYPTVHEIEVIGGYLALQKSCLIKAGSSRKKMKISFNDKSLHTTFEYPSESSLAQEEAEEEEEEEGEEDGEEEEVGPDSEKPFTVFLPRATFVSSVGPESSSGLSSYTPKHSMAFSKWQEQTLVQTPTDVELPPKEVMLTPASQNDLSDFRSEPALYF
# Key:
# [1] = target: T1, MYO10-TPRN(KASA)^BAIT; test: NanoSPD
# [2] = target: T2, MYO10-TPRN^BAIT (taperin fused to …); test: NanoSPD
binder,measurement,setting,value
PPP1CA^PREY (natural protein) not shown,fold increase of prey fluorescence at filopodial tips against MYO10^(NO BAIT),[1],1.6 fold
same,fold increase of prey fluorescence at filopodial tips against MYO10^(NO BAIT),[2],5.2 fold
